From PubChem BioAssay AID485341 (National Center for Advancing Translational Sciences (NCATS), 2010)
Out of some 330,000 compounds screened, about 1,700 (0.52%) were called active. This list was built around the results that the source calls inconclusive (neither active nor inactive); the mix of calls is not that of the screen. Calls come from the whole dose curve; as a rule, active = well fitted inhibition curve with a large enough effect; inconclusive = small, poorly fitted or top-dose-only effect; inactive = no such curve, though single readings can be large or run the other way. A potency beside an inconclusive call is a rough fit, not a confirmed value.

Each compound was assayed against Beta-lactamase (Escherichia coli (strain K12)) (UniProt P00811) (assay: qHTS Inhibitors of AmpC Beta-Lactamase (assay without detergent)). Settings: AmpC nitrocefin hydrolysis, absorbance 480 nm, 0.0001% Triton; activity change, negative = inhibition: at 57.1 µM (top of the series) unless noted.
UniProt P00811, sequence (P00811 whole entry, looked up): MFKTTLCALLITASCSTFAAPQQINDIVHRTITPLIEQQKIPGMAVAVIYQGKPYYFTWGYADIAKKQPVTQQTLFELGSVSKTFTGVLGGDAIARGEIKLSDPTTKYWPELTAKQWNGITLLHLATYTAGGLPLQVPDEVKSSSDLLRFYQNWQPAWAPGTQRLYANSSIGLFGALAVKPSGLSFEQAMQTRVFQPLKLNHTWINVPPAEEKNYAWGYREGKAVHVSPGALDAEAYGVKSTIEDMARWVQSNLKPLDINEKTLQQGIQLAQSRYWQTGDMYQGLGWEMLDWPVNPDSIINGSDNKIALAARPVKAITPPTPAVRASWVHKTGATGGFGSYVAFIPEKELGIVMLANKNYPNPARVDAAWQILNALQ
Method in brief: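 AmpC (5.3 nM in the dispensed reagent) in 20 mM phosphate pH 7.0 with 0.01% (detergent screen) or 0.0001% Triton X-100 was preincubated with compounds for 15 min at room temperature. Nitrocefin was then added from an 800 uM solution, and hydrolysis was followed at 480 nm.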
Note: nearly all actives have a fitted effect of over 20% in size.
Potency is the fitted concentration of half-maximal effect; tags give direction and shape of the fitted curve.
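Throughout, for activity change, negative = inhibition: plate controls were no compound for no effect and no enzyme for full effect.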

| Structure (SMILES) | Potency | activity change, negative = inhibition |
| --- | --- | --- |
| COc1ccc(CN(C(=O)c2nsc(Cl)c2Cl)C(C(=O)NC2CCCC2)c2ccc(C)cc2)cc1 (stereo not drawn) | inconclusive: 3.98 µM [inhibitor, full curve, poor fit] |  |
| C[C@@]12C(=O)Nc3cc(F)ccc3C(=O)N1[C@H]1c3ccccc3OC[C@@H]1[C@@H]2c1ccccc1 | inconclusive: 3.16 µM [inhibitor, full curve, poor fit] |  |
| O=[N+]([O-])c1ccc(C(O)CN=Cc2ccc(O)cc2O)cc1 (stereo not drawn) | active: 12.6 µM |  |
| CN1C2C=C3C(C#N)=C(N)C(C#N)(C#N)C(c4ccc(Br)cc4)C3C1CC2 (stereo not drawn) |  | inactive: -36.6% |
| Cc1cc(C)cc(C(=O)Nc2ccc(N3CCCC3)cc2)c1 |  | inactive: -3.63% [at 2.29 µM] |
| CCN(CC)c1ccc(NC(=O)COc2ccc(C#N)cc2)cc1S(=O)(=O)Nc1ccc(OC)cc1 | active: 5.01 µM |  |
| CCOC(=O)c1c(C=O)c(C)n(Cc2ccc(Cl)cc2)c1C |  | inactive: 30.5% |
| CCOc1ccc(-c2nc(-c3ccccc3C)no2)cc1 |  | inactive: -22.5% |
| Cc1cc(C)c(S(=O)(=O)N(C)c2ccccc2)c(C)c1 | inconclusive: 3.16 µM [inhibitor, full curve, poor fit] |  |
| Nc1c(Cl)c(Cl)nc(C(=O)OCC(=O)N2CCCC2=O)c1Cl | inconclusive: 28.2 µM [inhibitor, single point] |  |
| CC[C@]12c3[nH]c4ccc(OC)cc4c3CCN1C(=O)C(CC(=O)NC(C)(C)C)C[C@@H]2C(=O)N1CCN(C(=O)c2ccco2)CC1 (stereo partly drawn) |  | inactive: 89.2% |
| CCOC(=O)N1CCN(c2cc(=O)n(-c3cccc(Br)c3)c(=O)[nH]2)CC1 | inconclusive: 44.7 µM [inhibitor, partial curve, poor fit] |  |
| O=C(CS(=O)(=O)c1ccc(F)cc1)Nc1nnc(-c2ccccc2Cl)o1 | inconclusive: 35.5 µM [inhibitor, single point] |  |
| COCc1cc(C)n(CC(=O)Nc2ccc(N3CCOCC3)cc2)c(=O)c1C#N | inconclusive: 39.8 µM [inhibitor, single point] |  |
| Cc1ccc(F)cc1NC(=O)COC(=O)C1CCN(c2ccc(C(F)(F)F)cn2)CC1 | inconclusive: 28.2 µM [inhibitor, single point] |  |
| O=C1NC(=O)C(CCc2ccccn2)(Cc2cccc(Cl)c2Cl)C(=O)N1c1ccc(Br)cc1 (stereo not drawn) | inconclusive: 8.91 µM [inhibitor, partial curve] |  |
| CCOC(=O)c1c(C#N)cnn1-c1ccc(C)cc1 | inconclusive: 0.141 µM [inhibitor, full curve, poor fit] |  |
| CCc1noc(C)c1C(=O)OCC(=O)Nc1nc(-c2ccc(F)c(F)c2)cs1 |  | inactive: -34% |
| NS(=O)(=O)c1ccc(N=Nc2ccc(O)c3ncccc23)cc1 | inconclusive: 8.91 µM [inhibitor, full curve, poor fit] |  |
| O=C(CSc1ccc([N+](=O)[O-])cc1)Nc1cccc(S(=O)(=O)Nc2ccccc2F)c1 | inconclusive: 8.91 µM [inhibitor, partial curve] |  |
| Cc1ccc(S(=O)(=O)Nc2nc(C)c(C(=O)NN)s2)cc1 | inconclusive: 5.01 µM [inhibitor, partial curve] |  |
| Cc1cc(/C=C2\SC(=S)NC2=O)c(C)n1C1CC1 | inconclusive: 20 µM [inhibitor, single point] |  |
| Cc1cc2oc(C(=O)NCCc3ccc(S(N)(=O)=O)cc3)c(C)c2cc1C | inconclusive: 15.8 µM [inhibitor, partial curve] |  |

| Structure (SMILES) | Potency | activity change, negative = inhibition |
| --- | --- | --- |
| Cc1ccc(-n2nnnc2SC(C(=O)c2c[nH]c3ccccc23)c2ccccc2)cc1 (stereo not drawn) | inconclusive: 1.78 µM [inhibitor, full curve, poor fit] |  |
| CCC(C)C(NC(=O)c1ccccc1)C(=O)Nc1ccc(S(=O)(=O)Nc2cc(C)nc(C)n2)cc1 (stereo not drawn) | inconclusive: 8.91 µM [inhibitor, full curve, poor fit] |  |
| CC1(c2ccccc2Cl)NC(=O)N(CC(=O)NC(=O)NCc2ccco2)C1=O (stereo not drawn) |  | inactive: -8.19% |
| N/C(COc1ccc(Cl)cc1Cl)=N\NS(=O)(=O)c1ccccc1 | inconclusive: 0.708 µM [inhibitor, partial curve, poor fit] |  |
| O=C(Cc1ccc(Br)cc1)Nc1cccc(-c2cn3c(n2)SCC3)c1 | inconclusive: 3.55 µM [inhibitor, partial curve] |  |
| COc1ccc(/C=N/NC(=O)c2ccccc2O)cc1Cn1cc([N+](=O)[O-])cn1 | active: 6.31 µM |  |
| Cc1ccc(/C(N)=N/OC(=O)C23CC4CC(CC(C4)C2)C3)cc1 | inconclusive: 0.631 µM [inhibitor, partial curve, poor fit] |  |
| Cc1ccc(NC(=O)Nc2ccon2)cc1Cl |  | inactive: -29.6% |
| CC(Sc1nnc(-c2cc3ccccc3o2)n1-c1ccccc1)C(=O)O (stereo not drawn) | inconclusive: 5.01 µM [inhibitor, single point] |  |
| COCCN(C(=O)Cc1cccs1)C(C(=O)NC1CCCC1)c1cc(OC)c(OC)c(OC)c1 (stereo not drawn) |  | inactive: -27.6% |
| O=C(c1ccco1)N1CCN(c2nc3ccsc3c(=O)s2)CC1 | inconclusive: 0.316 µM [inhibitor, full curve, poor fit] |  |
| CN(C)c1ccc(C(=O)/C=C/c2cccnc2)cc1 |  | inactive: -23% |
| O=C(c1ccc(Br)s1)N1CCCC1 |  | inactive: -7.45% |
| CCOC(=O)C1=CN(Cc2cccc(F)c2)S(=O)(=O)NC1CCc1ccccc1 (stereo not drawn) | inconclusive: 3.55 µM [inhibitor, full curve] |  |
| C=CCN1C(=O)N/C(=C/c2ccccc2OCC(=O)Nc2ccc(F)cc2)C1=O | inconclusive: 39.8 µM [inhibitor, single point] |  |
| COc1ccc(NC(=O)/C=C/C(=O)O)cc1Cl | inconclusive: 6.31 µM [inhibitor, single point] |  |
| CCC(Sc1nc2ccsc2c(=O)n1Cc1ccc(C(=O)O)cc1)C(=O)Nc1ccc(C)c(Cl)c1 (stereo not drawn) | active: 8.91 µM |  |
| Cc1ccccc1OCc1nc2ccccc2c(=O)n1/N=C/c1cccc([N+](=O)[O-])c1 | inconclusive: 4.47 µM [inhibitor, full curve, poor fit] |  |
| Cc1c(-c2cccc(Cl)c2)nc2ccccc2c1C(=O)OCC(=O)Nc1ccc2c(c1)OCO2 | inconclusive: 2.51 µM [inhibitor, full curve, poor fit] |  |
| O=C(COc1ccccc1)Nc1nnc(-c2ccc3c(c2)CCCC3)o1 | active: 10 µM |  |
| Cc1nc(NS(=O)(=O)c2ccccc2)sc1NC(=O)Nc1ccc(Cl)cc1 | active: 15.8 µM |  |
| CCN(CC)CCCN(Cc1cc2cc3c(cc2[nH]c1=O)OCO3)C(=O)Nc1ccccc1OC | active: 0.398 µM |  |
| c1ccc(-c2cnnc(N3CCOCC3)n2)cc1 |  | inactive: -6.18% |

| Structure (SMILES) | Potency | activity change, negative = inhibition |
| --- | --- | --- |
| Cc1csc(NC(=O)CSCc2c(C)noc2C)n1 | inconclusive: 39.8 µM [inhibitor, single point] |  |
| N#CCC(=O)Nc1ccc(C(=O)OCC(=O)Nc2ccccc2-c2ccccc2)cc1 | inconclusive: 3.16 µM [inhibitor, partial curve] |  |
| COc1ccc(Cl)cc1N(CC(=O)N/N=C/c1ccc(OC(C)C)cc1)S(=O)(=O)c1ccc(C)c([N+](=O)[O-])c1 | inconclusive: 5.01 µM [inhibitor, full curve, poor fit] |  |
| O=C(Nc1ccccc1C(=O)O)c1cccc(NC(=O)c2ccc(Br)o2)c1 | inconclusive: 6.31 µM [inhibitor, single point] |  |
| Cc1ccc(CNS(=O)(=O)c2c(C(=O)N3CCCCCC3)c(C)n(C)c2C)cc1 |  | inactive: 34.2% |
| Cn1c(=O)c2c(nc(N3CCCCCC3)n2CC(O)COc2ccccc2)n(C)c1=O (stereo not drawn) |  | inactive: 0.692% |
| Cc1ccc(C)c(S(=O)(=O)N2CCCOC2CNC(=O)C(=O)NC2CCCC2)c1 (stereo not drawn) |  | inactive: 36.5% |
| CCOC(=O)N1CCN(C(=O)CS(=O)(=O)c2cn(Cc3ccc(Cl)cc3)c3ccccc23)CC1 | inconclusive: 0.316 µM [inhibitor, full curve, poor fit] |  |
| CCOc1ccc(N2C(=O)CC(Sc3n[nH]c(-c4ccccc4)n3)C2=O)cc1 (stereo not drawn) |  | inactive: -30.1% |
| COCCN(C(=O)c1ccco1)c1nc(-c2ccccc2)cs1 |  | inactive: -6.14% |
| CCOCCCNC(=S)N1C2CCC1CC(NC(=O)NC1CCCCC1)C2 (stereo not drawn) | active: 0.316 µM |  |
| COc1ccc(CC(=O)Nc2ccc(S(=O)(=O)Nc3cc(OC)nc(OC)n3)cc2)cc1 | inconclusive: 3.16 µM [inhibitor, full curve, poor fit] |  |
| CCOC(=O)c1[nH]nc2c1C(=O)N(CC)C2=O |  | inactive: -11.2% |
| O=C(/C=C/c1ccccc1)NCCS(=O)(=O)N1CCN(c2ccccc2)CC1 | inconclusive: 39.8 µM [inhibitor, single point] |  |
| CC(C)OC(=O)c1ccc(COC(=O)c2cccc(-c3nnc(-c4ccccc4)o3)c2)cc1 |  | inactive: -24.4% |
| O=C1NC(c2cccc(Br)c2)=N/C1=C\c1ccco1 | inconclusive: 35.5 µM [inhibitor, single point] |  |
| CC(C)C(=O)Nc1nc2cc3c(cc2s1)OCO3 | active: 10 µM |  |
| Cc1ccc(NC(=O)CN2C(=O)NC(Cc3c[nH]c4ccccc34)C2=O)cc1S(=O)(=O)N1CCCCC1 (stereo not drawn) | inconclusive: 2.24 µM [inhibitor, partial curve, poor fit] |  |
| CCCc1nc2ccccc2c(=O)n1/N=C/c1ccc(O)cc1 |  | inactive: -16.4% |
| O=C(CSc1ccc(Cl)cc1)Nc1nnc(-c2ccco2)o1 | inconclusive: 39.8 µM [inhibitor, single point] |  |
| N#C/C(=C\c1coc2ccc(O)cc2c1=O)C(=O)Nc1nc2ccccc2s1 | inconclusive: 14.1 µM [inhibitor, partial curve] |  |
| COC(=O)CS(=O)(=O)c1nnc([C@H](Cc2ccccc2)NC(=O)OC(C)(C)C)o1 | inconclusive: 25.1 µM [inhibitor, single point] |  |
